Some of the results follow. The list includes weakly bound sequences.
The sequences below were run against T1, MBP-FoxP3dN (UniProt Q99JB6) (assay: PD-seq (MBP pull-down with sequencing)). Settings: 20 mM Tris-HCl pH 7.5, 100 mM NaCl, 1.5 mM MgCl2, 0.4 uM protein, 0.1 uM dsDNA library, 30 min, room temperature, amylose pull-down; high values mean tight binding; double strand, one strand shown.
T1 sequence: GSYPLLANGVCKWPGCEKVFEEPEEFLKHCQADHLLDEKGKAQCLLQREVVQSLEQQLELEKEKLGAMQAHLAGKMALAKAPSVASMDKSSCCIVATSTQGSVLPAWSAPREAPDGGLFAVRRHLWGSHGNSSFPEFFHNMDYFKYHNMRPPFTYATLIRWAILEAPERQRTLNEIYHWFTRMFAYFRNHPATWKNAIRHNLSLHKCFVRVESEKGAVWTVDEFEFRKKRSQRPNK

| Sequence | binding signal (RPM ratio (pull-down/input)) |
| --- | --- |
| GATGATTGTTCTCCCAGCTGATGAATTAACGACCTCGAGTAAACAAATTTTCCTAATCTTTCTGTTCAAGCGCCATCTAC | 0.235 |
| GATGATTGTTCTCCCAGCTGATGAATTCATATATTCGAGTAAACAAATTTTCCTAATCTTTCTGTTCAAGCGCCATCTAC | 0.949 |
| GATGATTGTTCTCCCAGCTGATGAATTTCTTTACTCGAGTAAACAAATTTTCCTAATCTTTCTGTTCAAGCGCCATCTAC | 2.02 |
| GATGATTGTTCTCCCAGCTGATGAATTTTATCAATCGAGTAAACAAATTTTCCTAATCTTTCTGTTCAAGCGCCATCTAC | 0.413 |
| GATGATTGTTCTCCCAGCTGATGAATTATGCAGCTCGAGTAAACAAATTTTCCTAATCTTTCTGTTCAAGCGCCATCTAC | 3.11 |
| GATGATTGTTCTCCCAGCTGATGAATTAGCGTTCTCGAGTAAACAAATTTTCCTAATCTTTCTGTTCAAGCGCCATCTAC | 1.3 |
| GATGATTGTTCTCCCAGCTGATGAATTTGGCGCGTCGAGTAAACAAATTTTCCTAATCTTTCTGTTCAAGCGCCATCTAC | 1.67 |
| GATGATTGTTCTCCCAGCTGATGAATTGCATCACTCGAGTAAACAAATTTTCCTAATCTTTCTGTTCAAGCGCCATCTAC | 3.27 |
| GATGATTGTTCTCCCAGCTGATGAATTGATGCGCTCGAGTAAACAAATTTTCCTAATCTTTCTGTTCAAGCGCCATCTAC | 3.59 |
| GATGATTGTTCTCCCAGCTGATGAATTTCTCGTATCGAGTAAACAAATTTTCCTAATCTTTCTGTTCAAGCGCCATCTAC | 0.424 |
| GATGATTGTTCTCCCAGCTGATGAATTAGCACCCTCGAGTAAACAAATTTTCCTAATCTTTCTGTTCAAGCGCCATCTAC | 0.421 |
| GATGATTGTTCTCCCAGCTGATGAATTTTTAGGTTCGAGTAAACAAATTTTCCTAATCTTTCTGTTCAAGCGCCATCTAC | 0.24 |
| GATGATTGTTCTCCCAGCTGATGAATTTTCGCGGTCGAGTAAACAAATTTTCCTAATCTTTCTGTTCAAGCGCCATCTAC | 0.255 |
| GATGATTGTTCTCCCAGCTGATGAATTTAGTCTGTCGAGTAAACAAATTTTCCTAATCTTTCTGTTCAAGCGCCATCTAC | 0.54 |
| GATGATTGTTCTCCCAGCTGATGAATTCGCGACTTCGAGTAAACAAATTTTCCTAATCTTTCTGTTCAAGCGCCATCTAC | 0.792 |
| GATGATTGTTCTCCCAGCTGATGAATTTAATGTTTCGAGTAAACAAATTTTCCTAATCTTTCTGTTCAAGCGCCATCTAC | 3.24 |
| GATGATTGTTCTCCCAGCTGATGAATTCAGCCACTCGAGTAAACAAATTTTCCTAATCTTTCTGTTCAAGCGCCATCTAC | 5.07 |
| GATGATTGTTCTCCCAGCTGATGAATTCTGGATGTCGAGTAAACAAATTTTCCTAATCTTTCTGTTCAAGCGCCATCTAC | 0.414 |
